The supplement of paper PMC8728848
The list shows a part of the results.

Tests used:
Test in all cases: glycan array binding signal (z-score within array); higher = stronger binding
Conditions in all cases: glycan notation: IUPAC condensed, linker removed
[1] = biological target: Gal(b1-4)GlcNAc(b1-2)[Gal(b1-4)GlcNAc(b1-4)]Man(a1-3)[Gal(b1-4)GlcNAc(b1-2)[Gal(b1-4)GlcNAc(b1-6)]Man(a1-6)][GlcNAc(b1-4)]Man(b1-4)GlcNAc(b1-4)GlcNAc
How it was run: (§1)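 The binding signal is a Z-score computed within each array and averaged over linkers. Arrays of the same protein sequence at different concentrations or buffers were also averaged together. Data originate from 3228 arrays in the Consortium for Functional Glycomics database, kept only where the protein sequence was available.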

[2] = biological target: Gal(b1-4)GlcNAc(b1-2)[Gal(b1-4)GlcNAc(b1-4)]Man(a1-3)[GlcNAc(b1-4)][Gal(b1-4)GlcNAc(b1-2)Man(a1-6)]Man(b1-4)GlcNAc(b1-4)GlcNAc
How it was run: as §1

[3] = biological target: Gal(b1-4)GlcNAc(b1-2)[Gal(b1-4)GlcNAc(b1-4)]Man(a1-3)[GlcNAc(b1-4)][Gal(b1-4)GlcNAc(b1-2)[Gal(b1-4)GlcNAc(b1-6)]Man(a1-6)]Man(b1-4)GlcNAc(b1-4)GlcNAc
How it was run: as §1

[4] = biological target: Gal(b1-4)GlcNAc(b1-2)[Gal(b1-4)GlcNAc(b1-6)]Man(a1-6)[Gal(b1-4)GlcNAc(b1-2)Man(a1-3)]Man(b1-4)GlcNAc(b1-4)GlcNAc
How it was run: as §1

[5] = biological target: Gal(b1-4)GlcNAc(b1-2)[Gal(b1-4)GlcNAc(b1-6)]Man(a1-6)[Gal(b1-4)GlcNAc(b1-2)Man(a1-3)]Man(b1-4)GlcNAc(b1-4)[Fuc(a1-6)]GlcNAc
How it was run: as §1

[6] = biological target: Gal(b1-4)GlcNAc(b1-2)[Gal(b1-4)GlcNAc(b1-6)]Man(a1-6)[GlcNAc(b1-4)][Gal(b1-4)GlcNAc(b1-2)Man(a1-3)]Man(b1-4)GlcNAc(b1-4)GlcNAc
How it was run: as §1

[7] = biological target: Gal(b1-4)GlcNAc(b1-2)[Gal(b1-4)GlcNAc(b1-6)]Man(a1-6)[GlcNAc(b1-4)][Gal(b1-4)GlcNAc(b1-2)[Gal(b1-4)GlcNAc(b1-4)]Man(a1-3)]Man(b1-4)GlcNAc(b1-4)[Fuc(a1-6)]GlcNAc
How it was run: as §1

[8] = biological target: Gal(b1-4)GlcNAc(b1-3)Gal(b1-3)GalNAc
How it was run: as §1

[9] = biological target: Gal(b1-4)GlcNAc(b1-3)Gal(b1-3)GlcNAc
How it was run: as §1

[10] = biological target: Gal(b1-4)GlcNAc(b1-3)Gal(b1-4)Glc
How it was run: as §1

[11] = biological target: Gal(b1-4)GlcNAc(b1-3)Gal(b1-4)GlcNAc
How it was run: as §1

[12] = biological target: Gal(b1-4)GlcNAc(b1-3)Gal(b1-4)GlcNAc(b1-2)Man(a1-3)[Gal(b1-4)GlcNAc(b1-3)Gal(b1-4)GlcNAc(b1-2)Man(a1-6)]Man(b1-4)GlcNAc(b1-4)GlcNAc
How it was run: as §1

[13] = biological target: Gal(b1-4)GlcNAc(b1-3)Gal(b1-4)GlcNAc(b1-2)Man(a1-3)[Gal(b1-4)GlcNAc(b1-3)Gal(b1-4)GlcNAc(b1-2)Man(a1-6)]Man(b1-4)GlcNAc(b1-4)[Fuc(a1-6)]GlcNAc
How it was run: as §1

[14] = biological target: Gal(b1-4)GlcNAc(b1-3)Gal(b1-4)GlcNAc(b1-2)[Gal(b1-4)GlcNAc(b1-3)Gal(b1-4)GlcNAc(b1-6)]Man(a1-6)[Gal(b1-4)GlcNAc(b1-3)Gal(b1-4)GlcNAc(b1-2)Man(a1-3)]Man(b1-4)GlcNAc(b1-4)GlcNAc
How it was run: as §1

[15] = biological target: Gal(b1-4)GlcNAc(b1-3)Gal(b1-4)GlcNAc(b1-2)[Gal(b1-4)GlcNAc(b1-3)Gal(b1-4)GlcNAc(b1-6)]Man(a1-6)[Gal(b1-4)GlcNAc(b1-3)Gal(b1-4)GlcNAc(b1-2)Man(a1-3)]Man(b1-4)GlcNAc(b1-4)[Fuc(a1-6)]GlcNAc
How it was run: as §1

[16] = biological target: Gal(b1-4)GlcNAc(b1-3)Gal(b1-4)GlcNAc(b1-3)Gal(b1-4)GlcNAc
How it was run: as §1

[17] = biological target: Gal(b1-4)GlcNAc(b1-3)Gal(b1-4)GlcNAc(b1-3)Gal(b1-4)GlcNAc(b1-2)Man(a1-3)[Gal(b1-4)GlcNAc(b1-3)Gal(b1-4)GlcNAc(b1-3)Gal(b1-4)GlcNAc(b1-2)Man(a1-6)]Man(b1-4)GlcNAc(b1-4)GlcNAc
How it was run: as §1

[18] = biological target: Gal(b1-4)GlcNAc(b1-3)Gal(b1-4)GlcNAc(b1-3)Gal(b1-4)GlcNAc(b1-2)Man(a1-3)[Gal(b1-4)GlcNAc(b1-3)Gal(b1-4)GlcNAc(b1-3)Gal(b1-4)GlcNAc(b1-2)Man(a1-6)]Man(b1-4)GlcNAc(b1-4)[Fuc(a1-6)]GlcNAc
How it was run: as §1

[19] = biological target: Gal(b1-4)GlcNAc(b1-3)Gal(b1-4)GlcNAc(b1-3)Gal(b1-4)GlcNAc(b1-2)[Gal(b1-4)GlcNAc(b1-3)Gal(b1-4)GlcNAc(b1-3)Gal(b1-4)GlcNAc(b1-6)]Man(a1-6)[Gal(b1-4)GlcNAc(b1-3)Gal(b1-4)GlcNAc(b1-3)Gal(b1-4)GlcNAc(b1-2)Man(a1-3)]Man(b1-4)GlcNAc(b1-4)[Fuc(a1-6)]GlcNAc
How it was run: as §1

[20] = biological target: Gal(b1-4)GlcNAc(b1-3)Gal(b1-4)GlcNAc(b1-3)Gal(b1-4)GlcNAc(b1-3)Gal(b1-4)GlcNAc(b1-2)Man(a1-3)[Gal(b1-4)GlcNAc(b1-3)Gal(b1-4)GlcNAc(b1-3)Gal(b1-4)GlcNAc(b1-3)Gal(b1-4)GlcNAc(b1-2)Man(a1-6)]Man(b1-4)GlcNAc(b1-4)GlcNAc
How it was run: as §1

[21] = biological target: Gal(b1-4)GlcNAc(b1-3)Gal(b1-4)GlcNAc(b1-3)Gal(b1-4)GlcNAc(b1-3)Gal(b1-4)GlcNAc(b1-2)Man(a1-3)[Gal(b1-4)GlcNAc(b1-3)Gal(b1-4)GlcNAc(b1-3)Gal(b1-4)GlcNAc(b1-3)Gal(b1-4)GlcNAc(b1-2)Man(a1-6)]Man(b1-4)GlcNAc(b1-4)[Fuc(a1-6)]GlcNAc
How it was run: as §1

[22] = biological target: Gal(b1-4)GlcNAc(b1-3)Gal(b1-4)GlcNAc(b1-3)Gal(b1-4)GlcNAc(b1-3)Gal(b1-4)GlcNAc(b1-2)[Gal(b1-4)GlcNAc(b1-3)Gal(b1-4)GlcNAc(b1-3)Gal(b1-4)GlcNAc(b1-3)Gal(b1-4)GlcNAc(b1-6)]Man(a1-6)[Gal(b1-4)GlcNAc(b1-3)Gal(b1-4)GlcNAc(b1-3)Gal(b1-4)GlcNAc(b1-3)Gal(b1-4)GlcNAc(b1-2)Man(a1-3)]Man(b1-4)GlcNAc(b1-4)[Fuc(a1-6)]GlcNAc
How it was run: as §1

[23] = biological target: Gal(b1-4)GlcNAc(b1-3)Gal(b1-4)GlcNAc(b1-3)Gal(b1-4)GlcNAc(b1-3)Gal(b1-4)GlcNAc(b1-3)Gal(b1-4)GlcNAc(b1-2)Man(a1-3)[Gal(b1-4)GlcNAc(b1-3)Gal(b1-4)GlcNAc(b1-3)Gal(b1-4)GlcNAc(b1-3)Gal(b1-4)GlcNAc(b1-3)Gal(b1-4)GlcNAc(b1-2)Man(a1-6)]Man(b1-4)GlcNAc(b1-4)GlcNAc
How it was run: as §1

B1: rMpL (Macrolepiota procera) (protein)
chain: MSTQVSSGRTYKITNVIAGTVIDLSGEDNKSIIGYPYHSGKNQQWTFNWTGKAWTLRSASSGSYLGIEGTPAGGTRLVAVNDPFEWHIWRDEANENAFRIFVPFTNYNLDLSGYGDTTPGTPVQLWWTWEGLHQTWTIDRP
- glycan array binding signal (z-score) [1]: 4.13
- glycan array binding signal (z-score) [2]: 1.46
- glycan array binding signal (z-score) [3]: 2.08
- glycan array binding signal (z-score) [4]: 1.74
- glycan array binding signal (z-score) [5]: 2.3
- glycan array binding signal (z-score) [6]: 1.09
- glycan array binding signal (z-score) [7]: 2.28
- glycan array binding signal (z-score) [8]: -0.368
- glycan array binding signal (z-score) [9]: 0.138
- glycan array binding signal (z-score) [10]: 0.454
- glycan array binding signal (z-score) [11]: 0.366
- glycan array binding signal (z-score) [12]: 1.67
- glycan array binding signal (z-score) [13]: 1.98
- glycan array binding signal (z-score) [14]: 1.23
- glycan array binding signal (z-score) [15]: 3.75
- glycan array binding signal (z-score) [16]: 0.811
- glycan array binding signal (z-score) [17]: 2.64
- glycan array binding signal (z-score) [18]: 3.14
- glycan array binding signal (z-score) [19]: 4.71
- glycan array binding signal (z-score) [20]: 3.24
- glycan array binding signal (z-score) [21]: 3.33
- glycan array binding signal (z-score) [22]: 4.7
- glycan array binding signal (z-score) [23]: 2.97
